{"source": "paper PMC2441632", "target": "T1, full length murine TAF3 (mTAF3), Sf9 extract (mouse) (UniProt Q5HZG4)", "T1 sequence": "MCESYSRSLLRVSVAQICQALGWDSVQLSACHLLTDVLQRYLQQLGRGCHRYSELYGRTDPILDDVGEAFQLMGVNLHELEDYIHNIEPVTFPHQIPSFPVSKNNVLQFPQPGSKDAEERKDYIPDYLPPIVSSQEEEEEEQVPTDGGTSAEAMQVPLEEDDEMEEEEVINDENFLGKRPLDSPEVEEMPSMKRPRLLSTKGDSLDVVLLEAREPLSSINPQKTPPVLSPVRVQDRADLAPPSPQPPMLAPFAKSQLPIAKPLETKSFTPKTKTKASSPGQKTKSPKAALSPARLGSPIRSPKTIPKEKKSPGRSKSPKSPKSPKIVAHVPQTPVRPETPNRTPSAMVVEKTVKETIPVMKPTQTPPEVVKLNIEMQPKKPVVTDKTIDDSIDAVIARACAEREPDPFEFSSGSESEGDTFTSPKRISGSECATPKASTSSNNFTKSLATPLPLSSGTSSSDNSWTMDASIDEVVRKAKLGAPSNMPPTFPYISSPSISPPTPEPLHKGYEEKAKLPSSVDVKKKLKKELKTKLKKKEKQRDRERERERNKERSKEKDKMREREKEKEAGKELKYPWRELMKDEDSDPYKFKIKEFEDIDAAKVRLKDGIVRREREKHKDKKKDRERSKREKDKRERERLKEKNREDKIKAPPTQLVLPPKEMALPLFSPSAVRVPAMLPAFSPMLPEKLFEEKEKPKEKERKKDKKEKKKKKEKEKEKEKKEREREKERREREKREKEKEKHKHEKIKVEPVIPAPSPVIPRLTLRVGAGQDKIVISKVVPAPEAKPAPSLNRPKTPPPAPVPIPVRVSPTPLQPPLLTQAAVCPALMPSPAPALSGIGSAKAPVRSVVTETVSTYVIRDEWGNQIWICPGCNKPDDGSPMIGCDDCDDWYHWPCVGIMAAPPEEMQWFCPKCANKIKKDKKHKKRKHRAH", "assay": "co-IP; in vitro translated 35S-labelled proteins mixed with Sf9 extract overexpressing mTAF3; immunoprecipitation with anti-TAF3 39TA2F5; washed 3 times with PBS and once with PBS with 200 mM KCl; fluorography", "note": "Results are given in words; binding and its absence hold for the method and conditions named. Binding seen in cells or lysates may run through a third protein.", "data": [{"binder": "Drosophila melanogaster ADA2A, in vitro translated (protein, UniProt Q7KSD8 1-562, 35S methionine label) MSFMNPVDMVDEDAADLQFPKVALLHIFTTLNCLFAVEPLGPQVKRFIHAHQNEHTRNSMVLYNPHTLHRYLEEMEEKTRDQNSSVPSATKDANRCATCRCSLTEPYIKCSECLDTLLCLQCFSRGKEAFSHRNNHAYIIVRDNIQVFADEPHWTARDERILLKTLRTHGYGNWEAVSQALDQRHEPAEVRRHYHDCYFGGIFERLLNLKHARDSYVPERMPYVFKMRSLDPPRHDDIASMQFRLSAGYRCARGDFDTPYDTSAESLLSIMVDHRGRDDDNEASESEFEREVTEELQLGLVRAYNNRLRERQRRYKIMRQHGLIMPNRTVSWISKYVHAFGSDASCMRFLGFMQICPDPIKFDMLLESLRYYRELHSQLHKLYDLREHGVRTLSGAKLYARLSKERQQAQRDYSRLKQTDAFDWQQLVQHYESNRSGDPGPLAINSKLYVMNTRRKASPIEIGGGKHFTHCLTPTEYNFSLIPDLPGYSKLDDGERKLCSVARLVPQSYLDYKNQLVTEQAKLGYLRLADARRLIKIDVNKTRQIYDFLLEHGHISRPPSYG", "values": [{"measurement": "binding", "value": "no binding"}]}]}
